Source: article PMC11241627, “Cysteine Oxidation in Human Galectin-1 Occurs Sequentially via a Folded Intermediate to a Fully Oxidized Unfolded Form” (International Journal of Molecular Sciences, 2024)

Target: the molecule itself
Experiment: PFG NMR diffusion; pulsed field gradient NMR diffusion coefficients of Gal-1 during CuSO4 oxidation; 30 °C; ~25 μM Gal-1 in 20 mM potassium phosphate buffer pH 7.0; self-association (dimer)

B1: human galectin-1 (Gal-1), native, fully reduced (natural protein)
chain: not shown
notes: galectin-1 (Gal-1), human; six cysteines printed as C2, C16, C42, C60, C88, C130; Samples for HSQC were uniformly 15N- or 13C/15N-labelled; also called native Gal-1; N state
  stoichiometry N: 2
